In all, about 13,000 compounds were measured (“IFI”: median about 4, highest 2% from about 17 on). The list shows a part of the results.

The assay can be described thus: GSK_TCMDC: Inhibition Frequency Index (IFI). The number of non-kinase HTS assays where a compound showed > 50 % inhibition, expressed as a percentage of the number of such assays in which the compound was tested (-0 is zero). Type of assay: functional.
For the molecule `COCC(=O)N(Cc1ccccc1-c1cccc(CNCc2ccc3c(c2)OCO3)c1)C1CCN(Cc2ccccc2)CC1`, the IFI was 4.93%.

As to `COc1ccc(CN2CCCN(Cc3cccc(C(=O)Nc4ccc(C)c(F)c4)c3)CC2)cc1`, the IFI is 6.47%. The value for `Cc1ccc(NC(=O)N2CCC(n3c(-c4ccccc4)nc4cccnc43)CC2)cc1F` was 2.38%; that for `CN(C)CCCNc1ncnc2c1[nH]c1ccc(F)cc12` was 2.14%. The value for `O=S(=O)(ON=C1CCc2ccccc21)c1ccc(Cl)cc1` was 1%; that for `O=S(=O)(NCCN1CCCC1)c1ccc(-c2cccc(CNCc3ccc(F)cc3)c2)cc1F` was 11.4%. The value for `CCOCCCn1c(=N)c(C(=O)NCc2ccc(OC)cc2)cc2c(=O)n3cccc(C)c3nc21` was 4.3%; that for `Cc1ccc2c(=NN=CC=Cc3ccccc3)cc(C)[nH]c2c1` was 1.52%.

Regarding `CCCCn1c(Sc2ccc(C#N)c([N+](=O)[O-])c2)nnc1-c1cccc(Cl)c1`, the IFI was determined as 5.63%.

As for `Cc1ccc2c(c1C)NC(=O)C21NN=C(c2ccccc2)S1` (configuration not stated), the IFI was determined as 10.1%. In turn, `CC(=O)Nc1cccc(C(=O)Nc2cccc(-c3csc(-c4nc5ccccc5[nH]4)c3)c2)c1` had an IFI of 5.5%. The value for `CN1CCCN(Cc2ccc(-c3ccc(NC(=O)c4ccc(C#N)cc4)cc3)cc2)CC1` was 3.09%; that for `c1ccc(COc2ccnc(NCCCOc3cccc(CN4CCCCC4)c3)c2)cc1` was 5.59%.

Molecule `COc1ccc2nccc([C@@H](O)CN3CCC(NCc4cnc5c(c4)NC(=O)CS5)CC3)c2c1` had an IFI of 2.17%. For `CCOC(=O)c1c(C)n(-c2ccccc2)c2ccc(O)cc12` the value was 2.99%; for `O=C(OCC1CCN(Cc2ccccc2)C1)c1ccc(Cl)cc1` (configuration not stated), 0.73%. For `CN1CCN(Cc2cccc(Nc3nccc(Nc4ccc(Oc5ccccc5)cc4)n3)c2)CC1`, the IFI was determined as 3.01%.

`CCOC(=O)c1cc(Cl)cc(Cl)c1OCCCON1C(=N)N=C(N)NC1(C)C` yielded an IFI of 4.48%. For the molecule `Cc1cc(=NN=Cc2ccccc2)c2cc(C(F)(F)F)ccc2[nH]1`, the IFI was found to be 6.61%. The value for `Cc1cccc(Nc2nccc(NCC(O)c3ccc(C(F)(F)F)cc3)n2)c1` (configuration not stated) was 12%.

Regarding `Cc1noc(C)c1-c1ccc2c(Nc3ccccc3C(C)(C)C)c(C(=O)NCc3ccc(OC(C)C)cc3)cnc2c1`, the IFI was -0%.

The molecule `N#Cc1cccc(NC(=O)Nc2ccc(-c3ccc(-c4nc5cc(C(F)(F)F)ccc5[nH]4)cc3)cc2)c1` gave an IFI of 5%. Take `OC(c1ccc2ccccc2c1)C1CN(CCc2ccccc2)CCC1(O)c1ccccc1` (configuration not stated): the IFI is 0.76%. For `CN1CCCN(Cc2cccc(-c3ccc(NS(=O)(=O)c4cccc5cccnc45)cc3)c2)CC1` the value was 13%; for `CC(=O)Nc1nc(C(=O)Nc2cccc(-c3ccc4c(cnn4CC4CC4)c3)c2)cs1`, 3%; for `CCCN(CCC)CCCNc1ccc(C(=O)Nc2ccc(OCC)cc2)cc1[N+](=O)[O-]`, 2.92%.

For `COc1cc(C=NNc2ccnc3cc(Cl)ccc23)ccc1O`, the IFI turned out to be 7.97%. The value for `CCNc1cc(C(=O)N[C@@H](Cc2ccc(Cl)cc2)[C@H](O)CNC2CCCCC2)cc(N2CCCCS2(=O)=O)c1` was 0.76%; that for `COc1ccc2nc(/N=C3\NC(c4ccccn4)(c4ccccn4)C(=O)N3C)[nH]c2c1` was 5.43%; that for `COc1ccc(C(=O)Nc2ccc3oc(-c4ccc(C(F)(F)F)cc4)cc3c2)cc1CCCN(C)C` was 9.17%.

Consider `O=[N+]([O-])c1ccccc1/C=N/Nc1ccnc2cc(Cl)ccc12`, for which the IFI was determined as 0.75%.

For the molecule `Oc1ccc(CN2Cc3ccccc3OC3(CCN(Cc4c[nH]c5cnccc45)CC3)C2)cc1`, the IFI came to 1.64%. For `C=C[C@H]1CN2CC[C@H]1C[C@@H]2[C@@H](O)c1ccnc2ccc(OC)cc12` the value was -0%; for `CCN1CCN(Cc2ccc3nc(-c4cc(C)n(Cc5cc(Cl)ccc5OCc5ccccc5)n4)[nH]c3c2)CC1`, 14.9%; for `COc1ccc(NC(=O)Nc2ccc(Nc3nc(C)cc(N4CCCC4)n3)cc2)cc1`, 11.8%. For the molecule `CN1CCC(NCc2ccc(-c3ccc(S(=O)(=O)NCc4ccccc4)c(F)c3)cc2)CC1`, the IFI stood at 9.35%. The molecule `COc1ccc2nccc([C@@H](O)CN3CCC(NCc4nc5cc(F)c(F)cc5[nH]4)CC3)c2c1` had an IFI of 5.11%. Take `Cc1c(Cn2ncc(N3CCC(N)CC3)c(Cl)c2=O)cccc1NC(=O)Nc1ccc(-c2ccccc2)cc1`: the IFI was determined as 8.9%. In the case of `CC(=O)c1ccc(-c2ccc(C(=O)NCCCCN3CCC(c4ccc5c(c4OCC(N)=O)CCCC5)CC3)cc2)s1`, the IFI is 1.57%. The value for `Cc1cc(N)c2cc(NC(=O)CCC(=O)Nc3ccc4nc(C)cc(N)c4c3)ccc2n1` was 7.91%. The value for `COc1ccc(N2C(N)=NC(N)=NC2(C)C)cc1OC` was 0.72%; that for `Cn1nccc1C(=O)NCCNCc1cccc(-c2ccc(-c3nc4cc(C(F)(F)F)ccc4[nH]3)s2)c1` was 9.71%. For `Clc1cc(Nc2ncnc3sc(C#C[C@H]4CCCN4)cc23)ccc1OCc1cccnc1Cl` the value was 7.19%. The molecule `CC(=O)c1ccc2c(c1)C(NC(=O)c1cccc(Cl)c1Cl)C(CO)C(C)(C)O2` (configuration not stated) displayed an IFI of 3.08%. The value for `COC(=O)c1cccc(CNCc2cccc(-c3ccc(-c4nc5cccc(C)c5[nH]4)cc3)c2)c1` was 4.81%. The value for `CC(Oc1ccc(Cl)cc1)C(=O)N(C)C1CCN(CCCCCNC(=O)/C=C/c2ccc(Cl)c(Cl)c2)CC1` (configuration not stated) was 11.6%; that for `CC[C@H](NC(=O)c1c(CCCN2CCN(c3ccccc3)CC2)c(-c2ccccc2)nc2cc(O)ccc12)c1ccccc1` was 4.69%; that for `CCCCCCc1cnc2nc(N)nc(N)c2c1C` was 2.9%. Molecule `O=C(CCc1c[nH]cn1)Nc1cccc(-c2cccc(-c3nc4ccccc4[nH]3)c2)c1` displayed an IFI of 0.86%.

In the case of `CCOc1cc(C(C)C)ccc1C1CCN(CCCCNC(=O)c2ccc(NC(=O)c3ccc(Cl)cc3)cc2)CC1`, the IFI came to 8.04%. Molecule `O=C(NCc1cccs1)[C@H](Cc1ccccc1)Nc1ccnc(NCC2CCCCC2)n1` showed an IFI of 6.82%. For `CS(=O)(=O)c1ccc(CNCc2ccc(-c3ccc(-c4nc5cc(F)ccc5[nH]4)s3)cc2)cc1` the value was 9.52%. The value for `CC(C)COc1ccc(Cl)cc1Cc1ccc(-c2nc3ccc(F)cc3[nH]2)o1` was 15.5%; that for `CC(=O)c1cccc2c(NC(=O)Nc3ccc4nccc(N5CCN(C)CC5)c4c3)cccc12` was 5.11%; that for `C[C@@H](COc1ccccc1)NCC(O)c1ccc([N+](=O)[O-])c(OCc2ccccc2)c1` (some centres not stated) was 1.52%. `CC1(C)N=C(N)N=C(Nc2ccc(F)c(F)c2)N1` yielded an IFI of 1.65%. `COc1cc(CNC[C@@H](O)[C@H](Cc2ccccc2)NC(=O)c2cc(C3CCCC3)cc(N3CCCC3=O)c2)cc(OC)c1` showed an IFI of 4.93%.

Source of the values: ChEMBL document CHEMBL1157539, “Thousands of chemical starting points for antimalarial lead identification” (Nature, 2010).
